The full ranking holds about 2,900 compounds; the median of “NF-kB SEAP reporter activity, fold change vs agonist alone” is about 0.99, and the highest 2% start at about 2.6. The list shows a part of the results.
Legend:
RAW-Dual [1] = experiment: NF-kB SEAP reporter activity, fold change vs agonist alone; cytotoxicity flag (confluency mask): not cytotoxic; higher = enhanced NF-kB activity
Outline: (§1)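 RAW-Dual macrophages (50,000 cells/well in DMEM, 384-well plates) received 50 nL of library stock by pin tool, then a PRR agonist 1 h later, and were kept at 37 °C, 5% CO2. After 20 hours, supernatant was read for IRF by QuantiLuc luminescence and for NF-κB by QuantiBlue absorbance at 620 nm. Reporter activity is fold change over agonist-alone wells. Cytotoxic wells had IncuCyte confluency below 70% of agonist controls in both mask sets.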

RAW-Dual [2] = experiment: NF-kB SEAP reporter activity, fold change vs agonist alone; higher = enhanced NF-kB activity; settings: library stock concentration (final ~1000-fold dilution): 10 mM
Outline: as §1

RAW-Dual [3] = experiment: NF-kB SEAP reporter activity, fold change vs agonist alone; cytotoxicity flag (confluency mask): cytotoxic (confluency <70% of control); higher = enhanced NF-kB activity
Outline: as §1

[4] = agonist: ODN 1826 (TLR9) 0.5 ug/mL
[5] = agonist: Pam2CSK4 (TLR2/6) 0.1 ug/mL
[6] = agonist: Pam3CSK4 (TLR2/1) 0.1 ug/mL
[7] = cytotoxicity flag (confluency mask): not cytotoxic, agonist: Imiquimod (TLR7) […]
[8] = cytotoxicity flag (confluency mask): not cytotoxic, agonist: MPLA (TLR4) […]
[9] = cytotoxicity flag (confluency mask): cytotoxic (confluency <70% of control), agonist: Imiquimod (TLR7) […]
[10] = cytotoxicity flag (confluency mask): cytotoxic (confluency <70% of control), agonist: MPLA (TLR4) […]

CCCCc1oc2ccc(NS(C)(=O)=O)cc2c1C(=O)c1ccc(OCCCN(CCCC)CCCC)cc1.Cl (library stock concentration (final ~1000-fold dilution): 10 mM)
NF-kB SEAP reporter activity (RAW-Dual [1]; agonist: LPS (TLR4) 0.1 ug/mL): 0.27 | NF-kB SEAP reporter activity (RAW-Dual [1]; [4]): 0.964 | NF-kB SEAP reporter activity (RAW-Dual [1]; [5]): 0.216 | NF-kB SEAP reporter activity (RAW-Dual [1]; [6]): 0.873

CCCCc1oc2ccc(NS(C)(=O)=O)cc2c1C(=O)c1ccc(OCCCN(CCCC)CCCC)cc1.Cl
NF-kB SEAP reporter activity (RAW-Dual [2]; [7]): 0.984 | NF-kB SEAP reporter activity (RAW-Dual [2]; [8]): 0.902

CNC(=O)c1cc(Oc2ccc(NC(=O)Nc3ccc(Cl)c(C(F)(F)F)c3)c(F)c2)ccn1
NF-kB SEAP reporter activity (RAW-Dual [2]; [7]): 1.15 | NF-kB SEAP reporter activity (RAW-Dual [2]; [8]): 1.22

CNC(=O)c1cc(Oc2ccc(NC(=O)Nc3ccc(Cl)c(C(F)(F)F)c3)c(F)c2)ccn1 (library stock concentration (final ~1000-fold dilution): 10 mM)
NF-kB SEAP reporter activity (RAW-Dual [1]; agonist: LPS (TLR4) 0.1 ug/mL): 0.614 | NF-kB SEAP reporter activity (RAW-Dual [1]; [4]): 0.463 | NF-kB SEAP reporter activity (RAW-Dual [1]; [5]): 0.148 | NF-kB SEAP reporter activity (RAW-Dual [1]; [6]): 0.325

O=C(CCCN1CCN(c2ccccn2)CC1)c1ccc(F)cc1 (library stock concentration (final ~1000-fold dilution): 10 mM)
NF-kB SEAP reporter activity (RAW-Dual [1]; agonist: LPS (TLR4) 0.1 ug/mL): 1.05 | NF-kB SEAP reporter activity (RAW-Dual [1]; [4]): 0.704 | NF-kB SEAP reporter activity (RAW-Dual [1]; [5]): 0.91 | NF-kB SEAP reporter activity (RAW-Dual [1]; [6]): 1.19

O=C(CCCN1CCN(c2ccccn2)CC1)c1ccc(F)cc1
NF-kB SEAP reporter activity (RAW-Dual [2]; [7]): 0.893 | NF-kB SEAP reporter activity (RAW-Dual [2]; [8]): 0.982

CCOC(=O)C(CCc1ccccc1)NC(C)C(=O)N(CC(=O)O)C1Cc2ccccc2C1.Cl (configuration not stated)
NF-kB SEAP reporter activity (RAW-Dual [2]; [7]): 0.953 | NF-kB SEAP reporter activity (RAW-Dual [2]; [8]): 1.02

CCOC(=O)C(CCc1ccccc1)NC(C)C(=O)N(CC(=O)O)C1Cc2ccccc2C1.Cl (configuration not stated) (library stock concentration (final ~1000-fold dilution): 10 mM)
NF-kB SEAP reporter activity (RAW-Dual [1]; agonist: LPS (TLR4) 0.1 ug/mL): 0.873 | NF-kB SEAP reporter activity (RAW-Dual [1]; [4]): 1.05 | NF-kB SEAP reporter activity (RAW-Dual [1]; [5]): 1.03 | NF-kB SEAP reporter activity (RAW-Dual [1]; [6]): 0.941

O=C(O)/C=C\C(=O)O.O=C(c1ccc(OCCCc2c[nH]cn2)cc1)C1CC1 (library stock concentration (final ~1000-fold dilution): 10 mM)
NF-kB SEAP reporter activity (RAW-Dual [1]; agonist: LPS (TLR4) 0.1 ug/mL): 1.29 | NF-kB SEAP reporter activity (RAW-Dual [1]; [4]): 0.606 | NF-kB SEAP reporter activity (RAW-Dual [1]; [5]): 0.979 | NF-kB SEAP reporter activity (RAW-Dual [1]; [6]): 1.03

O=C(O)/C=C\C(=O)O.O=C(c1ccc(OCCCc2c[nH]cn2)cc1)C1CC1
NF-kB SEAP reporter activity (RAW-Dual [2]; [7]): 0.636 | NF-kB SEAP reporter activity (RAW-Dual [2]; [8]): 0.916

COC(=O)C1=C(C#N)NC(C)=C(C(=O)OC(C)C)C1c1cccc([N+](=O)[O-])c1 (configuration not stated)
NF-kB SEAP reporter activity (RAW-Dual [2]; [9]): 1.37 | NF-kB SEAP reporter activity (RAW-Dual [2]; [10]): 1.45

COC(=O)C1=C(C#N)NC(C)=C(C(=O)OC(C)C)C1c1cccc([N+](=O)[O-])c1 (configuration not stated) (library stock concentration (final ~1000-fold dilution): 10 mM)
NF-kB SEAP reporter activity (RAW-Dual [3]; agonist: LPS (TLR4) 0.1 ug/mL): 1.04 | NF-kB SEAP reporter activity (RAW-Dual [3]; [4]): 1.08 | NF-kB SEAP reporter activity (RAW-Dual [3]; [5]): 0.657 | NF-kB SEAP reporter activity (RAW-Dual [3]; [6]): 1.03

CNc1nc(Nc2cn(C(C)(C)C#N)nc2C)ncc1C(F)(F)F (library stock concentration (final ~1000-fold dilution): 10 mM)
NF-kB SEAP reporter activity (RAW-Dual [1]; agonist: LPS (TLR4) 0.1 ug/mL): 1.51 | NF-kB SEAP reporter activity (RAW-Dual [1]; [4]): 1.03 | NF-kB SEAP reporter activity (RAW-Dual [1]; [5]): 1.07 | NF-kB SEAP reporter activity (RAW-Dual [1]; [6]): 1.19

CNc1nc(Nc2cn(C(C)(C)C#N)nc2C)ncc1C(F)(F)F
NF-kB SEAP reporter activity (RAW-Dual [2]; [7]): 0.954 | NF-kB SEAP reporter activity (RAW-Dual [2]; [8]): 1.2

CC(C)(O)CNc1ncc(-c2ccnc(Nc3ccnc(Cl)c3)n2)c(CC2CC2)n1 (library stock concentration (final ~1000-fold dilution): 10 mM)
NF-kB SEAP reporter activity (RAW-Dual [1]; agonist: LPS (TLR4) 0.1 ug/mL): 5.81

C=CC(=O)N1C/C(=C\c2ccc([N+](=O)[O-])cc2)C(=O)/C(=C/c2ccc([N+](=O)[O-])cc2)C1 (library stock concentration (final ~1000-fold dilution): 10 mM)
NF-kB SEAP reporter activity (RAW-Dual [3]; agonist: LPS (TLR4) 0.1 ug/mL): 0.243 | NF-kB SEAP reporter activity (RAW-Dual [3]; [4]): 0.613 | NF-kB SEAP reporter activity (RAW-Dual [3]; [5]): 0.184 | NF-kB SEAP reporter activity (RAW-Dual [3]; [6]): 0.392

C=CC(=O)N1C/C(=C\c2ccc([N+](=O)[O-])cc2)C(=O)/C(=C/c2ccc([N+](=O)[O-])cc2)C1
NF-kB SEAP reporter activity (RAW-Dual [2]; [10]): 0.793

Cn1c(-c2ccccc2C(F)(F)F)nnc1C12CCC(c3noc(C4CC(F)(F)C4)n3)(CC1)CC2
NF-kB SEAP reporter activity (RAW-Dual [2]; [7]): 0.868 | NF-kB SEAP reporter activity (RAW-Dual [2]; [8]): 1.3

Cn1c(-c2ccccc2C(F)(F)F)nnc1C12CCC(c3noc(C4CC(F)(F)C4)n3)(CC1)CC2 (library stock concentration (final ~1000-fold dilution): 10 mM)
NF-kB SEAP reporter activity (RAW-Dual [1]; agonist: LPS (TLR4) 0.1 ug/mL): 1.22 | NF-kB SEAP reporter activity (RAW-Dual [1]; [4]): 0.41 | NF-kB SEAP reporter activity (RAW-Dual [1]; [5]): 0.827 | NF-kB SEAP reporter activity (RAW-Dual [1]; [6]): 1.16

CC(C)c1nc(CN(C)C(=O)NC(C(=O)NC(Cc2ccccc2)CC(O)C(Cc2ccccc2)NC(=O)OCc2cncs2)C(C)C)cs1 (configuration not stated) (library stock concentration (final ~1000-fold dilution): 10 mM)
NF-kB SEAP reporter activity (RAW-Dual [1]; agonist: LPS (TLR4) 0.1 ug/mL): 0.6 | NF-kB SEAP reporter activity (RAW-Dual [1]; [4]): 0.68 | NF-kB SEAP reporter activity (RAW-Dual [1]; [5]): 0.269 | NF-kB SEAP reporter activity (RAW-Dual [1]; [6]): 0.367

CC(C)c1nc(CN(C)C(=O)NC(C(=O)NC(Cc2ccccc2)CC(O)C(Cc2ccccc2)NC(=O)OCc2cncs2)C(C)C)cs1 (configuration not stated)
NF-kB SEAP reporter activity (RAW-Dual [2]; [7]): 0.777 | NF-kB SEAP reporter activity (RAW-Dual [2]; [8]): 0.653

CCn1c(-c2nonc2N)nc2cnc(Oc3cccc(NC(=O)c4ccc(OCCN5CCOCC5)cc4)c3)cc21.Cl (library stock concentration (final ~1000-fold dilution): 10 mM)
NF-kB SEAP reporter activity (RAW-Dual [1]; agonist: LPS (TLR4) 0.1 ug/mL): 1.31 | NF-kB SEAP reporter activity (RAW-Dual [1]; [4]): 0.288 | NF-kB SEAP reporter activity (RAW-Dual [1]; [5]): 1.12 | NF-kB SEAP reporter activity (RAW-Dual [1]; [6]): 1.56

CCn1c(-c2nonc2N)nc2cnc(Oc3cccc(NC(=O)c4ccc(OCCN5CCOCC5)cc4)c3)cc21.Cl
NF-kB SEAP reporter activity (RAW-Dual [2]; [7]): 1.48 | NF-kB SEAP reporter activity (RAW-Dual [2]; [8]): 1.41

CCN1CCN(Cc2ccc(C(=O)Nc3ccc(C)c(Oc4ccc5c(c4)CC(=O)N5)c3)cc2C(F)(F)F)CC1
NF-kB SEAP reporter activity (RAW-Dual [2]; [9]): 1.18 | NF-kB SEAP reporter activity (RAW-Dual [2]; [10]): 1.31

CCN1CCN(Cc2ccc(C(=O)Nc3ccc(C)c(Oc4ccc5c(c4)CC(=O)N5)c3)cc2C(F)(F)F)CC1 (library stock concentration (final ~1000-fold dilution): 10 mM)
NF-kB SEAP reporter activity (RAW-Dual [3]; agonist: LPS (TLR4) 0.1 ug/mL): 0.501 | NF-kB SEAP reporter activity (RAW-Dual [3]; [4]): 0.249 | NF-kB SEAP reporter activity (RAW-Dual [3]; [5]): 0.217 | NF-kB SEAP reporter activity (RAW-Dual [3]; [6]): 0.276

Source: the supplement of paper PMC10037445
